± gives the standard error. Variants at the floor of the assay are shown more often than the library holds them.
B1: glmS ribozyme (parent)
chain: AUAAAAGCGCCAGAACUACAGAAAUGUAGUUGACGAGGAGGAGGUUUAUCGAAUUUUCGGCGGAUGCCUCCAAA

What was measured:
Details in all cases: with glucosamine-6-phosphate
glucosamine-6-phosphate [1] = variants of: B1; test: self-cleavage kobs at 40 uM GlcN6P; higher = faster cleavage; RNA array
Outline: (§1)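 Barcoded ribozyme variants were transcribed in situ on sequenced MiSeq chips by E. coli RNA polymerase. At 37 °C, a hybridised Cy3 probe tracked them while glucosamine-6-phosphate (40 μM to 10 mM) in HEPES/KCl/Mg(OAc)2 buffer flowed in and tiles were imaged over ~14 h. Per-tile medians of signals normalised to baseline and to non-cleaving reference variants were fit to one- or two-exponential decays, giving kobs. kcat and KM came from weighted Michaelis–Menten fits across concentrations.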

glucosamine-6-phosphate [2] = variants of: B1; test: self-cleavage kobs at 160 uM GlcN6P; higher = faster cleavage; RNA array
Outline: as §1

glucosamine-6-phosphate [3] = variants of: B1; test: self-cleavage kobs at 640 uM GlcN6P; higher = faster cleavage; RNA array
Outline: as §1

glucosamine-6-phosphate [4] = variants of: B1; test: self-cleavage kobs at 10000 uM GlcN6P; higher = faster cleavage; RNA array
Outline: as §1

glucosamine-6-phosphate [5] = variants of: B1; test: self-cleavage kobs at 2500 uM GlcN6P; higher = faster cleavage; RNA array
Outline: as §1

| Variant | self-cleavage kobs at 40 uM GlcN6P (glucosamine-6-phosphate [1]) [s⁻¹] | self-cleavage kobs at 160 uM GlcN6P (glucosamine-6-phosphate [2]) [s⁻¹] | self-cleavage kobs at 640 uM GlcN6P (glucosamine-6-phosphate [3]) [s⁻¹] | self-cleavage kobs at 10000 uM GlcN6P (glucosamine-6-phosphate [4]) [s⁻¹] | self-cleavage kobs at 2500 uM GlcN6P (glucosamine-6-phosphate [5]) [s⁻¹] |
| --- | --- | --- | --- | --- | --- |
| AUAAAAGCGCCAGCACUACAGAAAUGUAUUUGACGAGGAGGAGGUUUAUGGAAUUUUCGGCGGAUGCCUCCAAA [A14C G29U C50G] | 0.000119 ± 3.7e-05 | – | – | – | – |
| AUAAAAGCGCCAGCACUACAGAAAUGUAGUUGACGAGGAGCAGGUUUAUCGAAUUUUCGGCGGAUGCCUCCAAA [A14C G41C] | < 1e-05 | < 1e-05 | – | – | – |
| AUAAAAGCGCCAGCACUACAGAAAUGUAGUUGACGAGGAGUAGGUUUAUCGAAUUUUCGGCGGUUGCCUCCAAA [A14C G41U A64U] | < 1e-05 | – | < 1e-05 | < 1e-05 | – |
| AUAAAAGCGCCAGCACUACAGAAAUGUAGUUGACGAGGAGGAGGUUUAUCGAAUUUUCGCCGGAUGCCUCCAAA [A14C G60C] | < 1e-05 | – | – | – | – |
| AUAAAAGCGCCAGCACUACAGAAAUGUAGUUGACGAGGAGGAGGUUUAUCGAAUAGUCGGCGGAUGCCUCCAAA [A14C U55A U56G] | 0.002 ± 0.00048 | – | 0.0195 ± 0.0041 | – | 0.0295 ± 0.013 |
| AUAAAAGCGCCAGGUCUACAGAAAUGUAGUUGACGAGGAGGAGGUUUAUCGAAUUUUCGGCGGAUGGCUCCAAA [A14G A15U C67G] | 5.43e-05 ± 1.3e-05 | – | – | 0.0027 ± 0.00046 | – |
| AUAAAAGCGCCAGGAUUACAGAAAUGUAGUUGACGAGGAGGAGGGUUAUCGAAUUUUCGGCGGAUGUCUCCAAA [A14G C16U U45G C67U] | 0.00026 ± 6.6e-05 | 0.000132 ± 3e-05 | 0.00248 ± 0.0012 | – | 0.00988 ± 0.0035 |
| AUAAAAGCGCCAGGACUACAGAAAUGUAGUUGAUGAGGAGGAGGUUUAUCGAAUUUUCGGCGGAUGCGUCCAAA [A14G C34U C68G] | 0.000349 ± 0.00016 | – | – | 5.07e-05 ± 2e-05 | – |
| AUAAAAGCGCCAGGACUACAGAAAUGUAGUUGACGAGGAGGAGGUUUAUCGAAUUUUUGGCUGAUGCCUCCAAA [A14G C58U G62U] | < 1e-05 | – | – | – | – |
| AUAAAAGCGCCAGGACUACAGAAAUGUACUUGACGAGGAAGAGGUUUAUCGAAUUUUUGGCGGAUGCCUCCAAA [A14G G29C G40A C58U] | < 1e-05 | – | < 1e-05 | – | – |
| AUAAAAGCGCCAGGACUACAGAAAUGUACUUGACGAGGAGGAGGUUUAUCGAAUUAUCGGCGGAUGCCUCCAAA [A14G G29C U56A] | 3.76e-05 ± 1.8e-05 | – | 0.000364 ± 8.4e-05 | 0.00136 ± 0.00029 | 0.000647 ± 0.00014 |
| AUAAAAGCGCCAGGACUACAGAAAUGUAGUUCACGAGGAGGAGGUUUAACGAAUUUUCGGCGGAUGCCUCCAAA [A14G G32C U49A] | < 1e-05 | – | – | < 1e-05 | – |
| AUAAAAGCGCCAGGACUACAGAAAUGUAGUUGACAAGGAGGGGGUUUAUCGAAUUUUCGGUGGAUGCCUCCAAA [A14G G35A A42G C61U] | < 1e-05 | < 1e-05 | < 1e-05 | – | < 1e-05 |
| AUAAAAGCGCCAGGACUACAGAAAUGUAGUUGACCAGGAGGAGGUUUAUCGAAUUUUCGGCGGAUGCCUCCAAA [A14G G35C] | < 1e-05 | < 1e-05 | < 1e-05 | – | < 1e-05 |
| AUAAAAGCGCCAGGACUACAGAAAUGUAGUUGACGAGGAGGAGGUUUAUCGAAUUUUCGCCGGAUGCCUCCAAA [A14G G60C] | < 1e-05 | < 1e-05 | – | – | – |
